Test systems include HOP-92 NSCLC; OVCAR-5 ovarian; TK-10 renal; A498 renal; 786-0 renal; HCT-116 colon; HL-60(TB) leukemia; K-562 leukemia; KM12 colon; M14 melanoma; MALME-3M melanoma; MDA-MB-231 breast; NCI-H226 lung; NCI-H23 lung; PC-3 prostate; SF-268 CNS; SF-295 CNS; SK-MEL-5 melanoma; SNB-75 CNS; U251 CNS; UACC-257 melanoma; UO-31 renal.
Common to all, as to test: growth of human tumour cells (NCI), 48 h

The values that follow come from PubChem BioAssay (NCI).

Each structure is given as a SMILES string.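 Compound exposure: 48 hours, 5 concentrations, 96-well plates. Here, GI50 denotes the concentration required for 50% inhibition of growth.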 A number of entries come with more than one value. The other results are left out here. The source may hold further records. For some assays here: Results that share an entry repeat one measurement (runs, samples, wells, individuals or studies). What stands in brackets tells the records apart. The letters are not those of the source and start again with each entry.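 TGI denotes the concentration required for complete inhibition of growth.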 For some assays here: The tests behind the records often covered other concentration ranges, not given here; some values may only mark the edge of a range.

`CCCNC1=C2CC(C)CC(OC)[C@@H](O)[C@H](C)/C=C(\C)C(OC(N)=O)C(OC)/C=C\C=C(/C)C(=O)NC(=CC1=O)C2=O` (stereo partly specified): the TGI is 861 nM and 45.3 µM with HOP-92 NSCLC; 622 nM and 40.7 µM in the test on OVCAR-5 ovarian.

Take `COC1CCC(N2C(=O)CNc3ncc(-c4ccc(C(C)(C)O)nc4)nc32)CC1` (stereo unspecified): the GI50 with TK-10 renal was 578 nM [sample A, mean of 2 tests] and 57.7 nM [sample B, mean of 2 tests].

For `O=C(Nc1ccc(Cl)c(Cl)c1)Nc1ccc(Cl)c(Cl)c1`, in the test with A498 renal, the GI50 was 1.41 µM [sample A, 1 test] and 103 nM [sample B, 1 test].

Take `CC[C@@]1(O)C[C@H](OC2CC(N(C)C)C(O)C(C)O2)c2c(O)c3c(c(O)c2[C@H]1OC1CC(N(C)C)C(O)C(C)O1)C(=O)c1cccc(O)c1C3=O` (stereo partly specified): the TGI in the test on 786-0 renal is 743 nM and 10.3 µM; with A498 renal, 116 nM and < 10 nM; in the test on HCT-116 colon it was 327 nM and < 10 nM; in the test with HL-60(TB) leukemia, 843 nM and 83.5 nM; with HOP-92 NSCLC it was 774 nM and < 10 nM; in the test on K-562 leukemia, 424 nM and 11.4 nM. For the same molecule, the TGI is 306 nM and < 10 nM in the test with KM12 colon; 171 nM and 16.2 nM in the test on M14 melanoma; 171 nM and < 10 nM with MALME-3M melanoma; 231 nM and < 10 nM in the test with MDA-MB-231 breast; 53.5 nM and 945 nM in the test with NCI-H226 lung; 375 nM and < 10 nM in the test on NCI-H23 lung. The TGI with OVCAR-5 ovarian is 706 nM and 7.2 µM; in the test on PC-3 prostate it was 187 nM and < 10 nM; in the test with SF-268 CNS, 931 nM and 38.3 nM; in the test with SF-295 CNS, 811 nM and 10.8 nM; in the test on SK-MEL-5 melanoma, 245 nM and < 10 nM; in the test with SNB-75 CNS it was 132 nM and < 10 nM. The TGI with TK-10 renal is 935 nM and 30.5 nM; in the test on U251 CNS, 573 nM and 10 µM; in the test on UACC-257 melanoma, 554 nM and 45.6 nM; in the test on UO-31 renal it was 568 nM and < 10 nM.
